# Out of some 310,000 compounds screened, about 14,000 (4.5%) showed an effect of 50% or more. The effect is printed as a negative number. The list shows a part of the results.
# Biological target: human ether-à-go-go-related gene (hERG) potassium channel (human, UniProt Q12809)
# Test: primary screen, population patch clamp on CHO cells stably expressing hERG
# 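Note: peak tail current of the secondary pulse compared with the same well before compound.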
# Chain of human ether-à-go-go-related gene (hERG) potassium channel (Q12809 whole entry, looked up): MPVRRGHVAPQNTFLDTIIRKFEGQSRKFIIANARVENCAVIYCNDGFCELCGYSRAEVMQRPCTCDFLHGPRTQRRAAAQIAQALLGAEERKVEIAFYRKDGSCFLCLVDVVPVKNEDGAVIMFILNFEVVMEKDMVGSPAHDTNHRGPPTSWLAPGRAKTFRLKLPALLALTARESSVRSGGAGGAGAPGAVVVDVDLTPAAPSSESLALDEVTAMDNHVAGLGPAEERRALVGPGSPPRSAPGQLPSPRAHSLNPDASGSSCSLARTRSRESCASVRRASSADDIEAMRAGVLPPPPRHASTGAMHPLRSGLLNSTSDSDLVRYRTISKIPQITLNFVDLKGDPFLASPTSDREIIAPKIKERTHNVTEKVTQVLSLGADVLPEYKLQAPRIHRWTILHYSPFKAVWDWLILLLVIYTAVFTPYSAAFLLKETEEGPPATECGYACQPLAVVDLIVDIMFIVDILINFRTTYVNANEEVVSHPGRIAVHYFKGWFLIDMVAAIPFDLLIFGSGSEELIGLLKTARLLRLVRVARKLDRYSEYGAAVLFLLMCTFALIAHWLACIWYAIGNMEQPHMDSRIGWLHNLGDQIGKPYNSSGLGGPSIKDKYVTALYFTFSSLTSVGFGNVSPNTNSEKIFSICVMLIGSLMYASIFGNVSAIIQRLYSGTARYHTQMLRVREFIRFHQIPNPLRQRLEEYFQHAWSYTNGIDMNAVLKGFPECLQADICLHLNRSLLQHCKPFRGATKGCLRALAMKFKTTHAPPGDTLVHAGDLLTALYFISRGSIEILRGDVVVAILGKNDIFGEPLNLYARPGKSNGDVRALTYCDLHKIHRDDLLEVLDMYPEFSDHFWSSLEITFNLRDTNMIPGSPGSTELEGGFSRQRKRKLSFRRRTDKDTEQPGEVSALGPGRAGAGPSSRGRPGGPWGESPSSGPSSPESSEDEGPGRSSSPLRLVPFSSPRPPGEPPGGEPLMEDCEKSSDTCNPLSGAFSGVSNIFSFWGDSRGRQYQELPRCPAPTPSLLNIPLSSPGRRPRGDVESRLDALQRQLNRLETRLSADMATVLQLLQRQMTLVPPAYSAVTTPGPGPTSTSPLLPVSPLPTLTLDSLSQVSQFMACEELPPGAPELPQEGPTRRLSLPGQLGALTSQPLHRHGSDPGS
row,SMILES,"hERG current change (%, negative = inhibition) at 10uM [%]"
1,O=C(CSc1nnc(-c2ccncc2)s1)Nc1ccc(Cl)c(C(=O)O)c1,13.7
2,Cc1ccc(C)c(N2CCN(S(=O)(=O)c3csc(C(N)=O)c3)CC2)c1,-8.27
3,O=C(Nc1ccc(S(=O)(=O)Nc2ncccn2)cc1)c1ccc(N2CCCC2=O)cc1,20.1
4,CCN(CC(=O)NCc1cccs1)CC(=O)Nc1cccc(S(N)(=O)=O)c1,14.4
5,Cc1cc(OCC(=O)N[C@@H](Cc2ccccc2)C(=O)O)c2c3c(c(=O)oc2c1)CCCC3,0.915
6,COc1ccc(OC)c(C2SCCN2S(C)(=O)=O)c1 (centres unmarked),-7.13
7,Cc1ccc(-c2nc3ncccn3c2Nc2ccc3c(c2)OCO3)o1,-48
8,C=C1CC2C(=O)N(Cc3cc(OC)ccc3OC)C(C(=O)OCC)(C(=O)OCC)C1N2C(=O)OC(C)(C)C (centres unmarked),-4.79
9,O=C(c1ccc(Cn2cc([N+](=O)[O-])cn2)o1)N1CCCCCC1,-4.88
10,COc1ccc(N2CCN(C(=O)CSc3nnc(COc4cccc5cccnc45)o3)CC2)cc1,-12
11,c1ccc(-c2csc(NC3CCCCC3)n2)cc1,17.1
12,CCCCCCNCc1ccc(Br)cc1.Cl,-61.7
13,CCN(CC)C(c1ccc(F)cc1)c1nnnn1C1CCCCC1.Cl (centres unmarked),-8.8
14,COc1ccc(S(=O)(=O)c2c(O)c3ccc(C(=O)Nc4ccccc4)cc3[nH]c2=O)cc1,11.7
15,CC1CCCN(C(=O)C2CC(=O)N(c3ccc(Cl)cc3)C2)C1 (centres unmarked),-2.95
16,CC(=O)Nc1nn(C)c2nc3ccc(C)cc3cc12,13
17,COc1ccccc1C(=O)NNC(=O)C1CCCO1 (centres unmarked),11.5
18,COc1ccc(/C=C/C(=O)NCC(=O)N2CCC(N(C)CCN3CCOCC3)CC2)cc1OC,14.7
19,Cc1cccc(-n2c(Cc3ccccc3)nnc2SCc2ccc([N+](=O)[O-])cc2)c1,-37.6
20,CC(C)=C1C2CCC1C(C(=O)NCCc1ccccc1)C2C(=O)O (centres unmarked),23.4
21,COc1cccc(-c2csc(N3CCN(C(=S)NCC(C)C)CC3)n2)c1,-0.713
22,N#CCCn1cc(C=C(C#N)C#N)c(-c2ccc(Cl)cc2)n1,-4.66
23,CC(=O)c1ccc(NS(=O)(=O)c2ccc(C)cc2)cc1,8.09

row,SMILES,"hERG current change (%, negative = inhibition) at 10uM [%]"
1,Cn1c(N)c(C(=O)COC(=O)COc2ccc(Br)cc2)c(=O)n(C)c1=O,-72.6
2,COC(=O)c1ccc(COc2ccc(C)c(C)c2)o1,12.3
3,CCOC(=O)c1sc2nc(C)nc(NC3CCC(O)CC3)c2c1C (centres unmarked),2.9
4,c1coc(CNc2ncnc3sc4c(c23)CCCCC4)c1,-39.4
5,Cc1ccc(C(=O)COC(=O)CNC(=O)Cc2ccccc2)cc1[N+](=O)[O-],11.7
6,CN(C)[C@@H]1C(=O)C(C(N)=O)=C(O)[C@@]2(O)C(=O)C3=C(O)c4c(O)cccc4[C@@](C)(O)[C@H]3[C@H](O)[C@@H]12.O,8.23
7,Cc1cc(C)nc(NNC2=CC(=[N+]3CCCCC3)CC(C)(C)C2)n1.[I-],-14.9
8,O=C(Cn1[nH]c(=O)c2ccccc2c1=O)NCc1cccnc1,22.4
9,COCCNC(=O)c1cccc(NC(=O)C2=C(C)OCCS2)c1,34
10,COc1ccc(S(=O)(=O)N2CCCCCC2)cc1C(=O)OCC(=O)NC(C)(C)C,-17.5
11,COc1ccc(C(=O)NC(=O)COC(=O)c2ccc(C)o2)cc1,-3.33
12,O=C(COC(=O)/C=C/c1nc2ccccc2s1)Nc1cccc2ccccc12,1.72
13,Cc1nc(Nc2cccc(C(C)O)c2)c2nnn(Cc3ccccc3F)c2n1 (centres unmarked),-7.29
14,CC1(C)CC(=O)C(C(O)c2cccc([N+](=O)[O-])c2)C(C)(C)N1 (centres unmarked),7.02
15,Cc1cccc(C(=O)NC(CC(=O)O)c2ccc(OC3CCCC3)cc2)c1[N+](=O)[O-] (centres unmarked),23.8
16,Cc1cc(C)c(NC(=O)CSc2nnc(CNC(=O)c3c(F)cccc3Cl)o2)c(C)c1,12.3
17,CC1CN(C(=S)Nc2cccc([N+](=O)[O-])c2)CC(C)O1 (centres unmarked),2.57
18,CCCNCc1cc(OC)c(OCCC)cc1Cl.Cl,-13.3
19,Cc1cc2c(ncn2C)c(NS(=O)(=O)c2ccc(F)cc2)c1C,0.6
20,O=C(Nc1nc2c(s1)CCCC2)c1cc2n(n1)C(C(F)(F)F)CC(C1CC1)N2 (centres unmarked),7.66
21,CC1=CC(C)(C)NC(=S)N1c1ccc(C)cc1C,12.3
22,COc1ccc2[nH]cc(CCNC(=O)CS(=O)(=O)Cc3ccccc3)c2c1,11.3
23,CC12C=CC3(CN(Cc4ccccc4)C(=O)C3C1C(=O)NCc1ccco1)O2 (centres unmarked),6.06

row,SMILES,"hERG current change (%, negative = inhibition) at 10uM [%]"
1,CN1CCN(CC(=O)Nc2nc(-c3c[nH]c4ccccc34)cs2)CC1,-23.9
2,O=c1c2ccccc2nc2n1C(CSCc1ccccc1)CS2 (centres unmarked),-37.1
3,Fc1ccc(-c2n[nH]c(=S)n2-c2ccc3c(c2)OCCO3)cc1,8.44
4,CCc1nc(SCC(=O)Nc2c(C)n(C)n(-c3ccccc3)c2=O)n[nH]1,-13.6
5,Cc1ccc(-n2cccn2)cc1,46.9
6,COc1ccc(NC(=O)COc2ccccc2C#N)c(S(=O)(=O)N2CCCCC2)c1,-21.8
7,Cc1ccc(NC(=O)CSc2cccc[n+]2[O-])c([N+](=O)[O-])c1,12.2
8,CSCCNCc1cn(-c2ccc(F)cc2F)nc1-c1ccccc1C,-48.7
9,CCc1cnccc1CCC(=O)Nc1ccccc1C,0.898
10,Clc1ccc(SCc2cc(-c3ccccc3)on2)cc1,0.436
11,CC(=O)c1cccc(NC(=O)CCC(=O)Oc2ccc(C)cc2)c1,-22
12,Cc1ccc([N+](=O)[O-])cc1NC(=O)c1ccc2c(c1)OCO2,11.4
13,O=S(=O)(Nc1nc2ccccc2nc1OCC(F)(F)F)c1cccs1,4.91
14,Cn1c(=O)c(=O)n(C)c2cc(S(=O)(=O)CCC(=O)Nc3ccc(F)cc3)ccc21,-2.6
15,Cn1c(SCC(=O)c2ccc3c(c2)OCO3)nnc1C1COc2ccccc2O1 (centres unmarked),-19.8
16,FC(F)(F)c1cccc(NC(=S)N2CCCCCC2)c1,-11.5
17,COc1cccc(-c2nnn(CC(=O)Nc3ccc(C)cc3C)n2)c1OC,-1.38
18,CC(=O)c1cccc(N2C(=NC(=O)C3CC3)SC3CS(=O)(=O)CC32)c1 (centres unmarked),0.996
19,CCOc1ccc(NC(=O)c2ccccc2OCC(=O)c2ccccc2)cc1,-3.22
20,Cc1cccc(N(CC(=O)NCc2ccco2)C(=O)CCC(=O)Nc2nccs2)c1,28.2
21,Cc1ccc(OCCCNC2CCCC2)cc1,-0.454
22,Cn1c(N)c(C(=O)COC(=O)CSc2ccc3ccccc3c2)c(=O)n(C)c1=O,-1.77
23,CCN(CC)CCN(C(=O)c1ccc2ccccc2c1)c1nc2ccc(F)cc2s1.Cl,-12.7

row,SMILES,"hERG current change (%, negative = inhibition) at 10uM [%]"
1,CC(=O)CCc1c(C)[nH]c2ccccc2c1=O,9.69
2,Cc1ccc(OCc2nc(-c3ccc(-n4cccc4)cc3)no2)cc1C,-0.988
3,COc1ccc(C(=O)Nc2cc(C)on2)cc1OC,10
4,CCOc1ccccc1OCC(=O)Nc1ccc(S(=O)(=O)N(C)C)cc1,-18.7
5,COc1ccc(N2CCN(C(C)=C3C(=O)c4ccccc4C3=O)CC2)cc1,-53.3
6,Cc1ccccc1Oc1ncnc(N)c1[N+](=O)[O-],11.9
7,Cc1ccccc1NS(=O)(=O)c1cc(C(=O)N2CCCC2)ccc1C,-4.88
8,O=C(NCc1nnc(SCC(=O)N2CCCCC2)o1)c1ccc(F)cc1,10.2
9,COc1ccc(NC(=O)CSc2nc3ccccc3c(=O)n2CCCN2CCC(C)CC2)c(OC)c1,-81.6
10,Cc1ccc(NC(=O)CN(Cc2ccco2)Cc2ccccc2O)cc1C,7.36
11,Cn1c(=O)n(C)c2cc(/C=N/NC(N)=S)ccc21,13.4
12,CCn1c(=O)cc(N2CCCCC2)[nH]c1=O,11
13,CC(C(=O)NCC1CCCCC1)N(C)Cc1ccc(Br)cc1 (centres unmarked),-2.07
14,C=CCOc1ccc(C(=O)Nc2ccc(OCC)cc2)cc1,15.3
15,O=S(=O)(NC1=NCCCCCC1)c1cccs1,3.19
16,Cc1ccc(NC(=O)N2C(=O)C3(OCCO3)c3ccccc32)cc1,18.2
17,Cc1cc(C)cc(NC(=O)C(=O)NCCCN2CCOCC2)c1,-6.69
18,COc1ccc(OCC(=O)c2c[nH]c3ccccc23)cc1,17.2
19,Cc1cc(C)nc(NC(=O)c2c(-c3ccccc3Cl)noc2C)c1,7.1
20,Cn1c2ccccc2c(=O)c2cc(C#Cc3ccsc3)ccc21,13.2
